PubChem BioAssay (NCI)
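Method: 48-hour compound exposure of cells in 96-well plates, five concentrations, linear interpolation of endpoints. At the GI50, growth is halved. TGI: concentration producing complete growth inhibition.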

System: NCI-H322M lung
Test: inhibition of tumour cell growth, NCI panel, 48 h

Going from C/C(=N\NC(N)=S)c1ccc(C2CCCCC2)cc1 to NC(=O)Oc1ccccc1, the TGI rises from 83.6 µM to > 100 µM.

First: C=C(C)[C@@H]1CC[C@]2(CO)CC[C@]3(C)[C@H](CC[C@@H]4[C@@]5(C)CC[C@H](NCO)C(C)(C)[C@@H]5CC[C@]43C)[C@@H]12
Second: CCOC(=O)CCC(NC(=O)c1ccc(Nc2nc3ccccc3nc2C(=O)OCC)cc1)C(=O)OCC (stereo unspecified)
The TGI of the first is 35-fold lower: 1.66 µM for the first, 58.4 µM for the second.

First: CCn1c2ccccc2c2cc(Nc3cc(C)[nH]c(=O)n3)ccc21
Second: COc1cccc(NC2=C(Cl)C(=O)N(Cc3ccc(Cl)cc3)C2=O)c1
The TGI of the first is higher: > 100 µM for the first, 32.8 µM for the second.

Going from CCCCCCCCCCSC(=N)N to O=C(Cc1ccccc1)NN1C(=O)/C(=C\c2ccccc2O)SC1=Nc1ccccc1, the TGI rises from 13.4 µM to > 100 µM.

In order of falling GI50:
1. COc1cccc(NC2=C(Cl)C(=O)N(Cc3ccc(Cl)cc3)C2=O)c1  5.41 µM
2. CCCCCCCCCCSC(=N)N  3.54 µM
3. C=C(C)[C@@H]1CC[C@]2(CO)CC[C@]3(C)[C@H](CC[C@@H]4[C@@]5(C)CC[C@H](NCO)C(C)(C)[C@@H]5CC[C@]43C)[C@@H]12  0.904 µM
